The whole screen tested about 71,000 compounds, of which about 1,800 (2.5%) were called active. The inconclusive results got no clear call from the source; some entries with a clear call stand among them for comparison. Calls come from the whole dose curve; as a rule, active = well fitted activation curve with a large enough effect in the signal ratio, with a control signal flat (not every such curve was filed as active); inconclusive = small, poorly fitted or top-dose-only effect, or effect the other way, or a change in a side signal; inactive = flat fitted curve, though single readings scatter; the % refers to the signal ratio. Where the call is inconclusive, the potency comes from a doubtful curve fit.
Assay: Cell signaling CRE-BLA (Fsk stim); for activity change, negative = inhibition: % of control where 0% means no effect
Conditions: CHO CRE-bla reporter (cAMP response element driving beta-lactamase), forskolin EC10, beta-lactamase ratio; activity change, negative = inhibition: at 38.2 µM (top of the series) unless noted
Outline: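 Forskolin analogue NKH 477 at EC10 stimulated CRE-driven beta-lactamase in CHO cells alongside compound dilution series. Beta-lactamase was measured with CCF4, excitation 405 nm, emission ratio 460/530 nm.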
For `COc1ccc(NC(=O)CN2C(=O)CC(C)(C)S(=O)(=O)c3ccccc32)cc1`, the “activity change, negative = inhibition” value was inactive: -6.85%. For `CCOC(=O)c1c(C)[nH]c(C)c1C(=O)CSc1nnc(-c2cc(OC)c(OC)c(OC)c2)o1`, the activity change, negative = inhibition was inconclusive: 4.43%. For `O=S(=O)(Nc1nc(CN2CCOCC2)nc2sc3c(c12)CCCC3)c1cc(F)ccc1F`, the Potency was inconclusive: 10 µM [rising, single point]. With `Cc1ccc(-c2cn3cccnc3n2)cc1NC(=O)c1ccc(Br)o1` the activity change, negative = inhibition was inconclusive: 21.4%. For `C=CCNC(=O)NC(=O)COC(=O)CCCSc1nc2ccccc2[nH]1`, the activity change, negative = inhibition was inconclusive: 29.5%. With `COc1ccc(OC)c(-c2cc(C(=O)NCCCn3ccnc3)no2)c1` the activity change, negative = inhibition was inconclusive: 19.4%. In the case of `COCCNC(=O)Cc1ccc(Br)cc1`, the activity change, negative = inhibition was inconclusive: -0.738% [at 7.6 µM]. With `O=C(c1ccc(COc2ccccc2Br)o1)N1CCCCCC1` the “activity change, negative = inhibition” value was inactive: -3.99%. With `O=C(Nc1ccc2c(c1)nc1n2CCOC1)c1ccccc1` the “activity change, negative = inhibition” value was inactive: 3.89%. For `Cn1c(=O)n(C)c2cc(NS(=O)(=O)c3ccc4c(c3)CCCC4)ccc21`, the Potency was inconclusive: 12.6 µM [rising, partial curve]. For `Cc1ccc(Cn2nnc3c(=O)[nH]c(C4CCCN(C(=O)Nc5ccc(F)cc5)C4)nc32)cc1` (configuration not stated), the Potency was inconclusive: 12.6 µM [rising, single point]. With `Cc1nc2cnc(N(C)C)nc2n(-c2ccccc2)c1=O` the Potency was active: 10 µM. For `Cc1ccc2c(c1)-c1c(cnn1CC(=O)Nc1ccccc1N1CCN(C)CC1)CO2`, the Potency was inconclusive: 12.6 µM [rising, single point]. For `CC(NC(=O)c1cc2ccccc2o1)C(=O)O` (configuration not stated), the activity change, negative = inhibition was inconclusive: 2.69%. In the case of `CCOC(=O)c1cc(C(=O)OCC)c2cc(Br)ccc2n1`, the Potency was inconclusive: 12.6 µM [rising, single point]. For `Cc1ccc2c(CSc3nnc(C4CC4)n3N)cc(=O)oc2c1C`, the Potency was inconclusive: 10 µM [rising, partial curve]. With `CCN(CC)c1ccc2cc(-c3nc4ccccc4n3C)c(=O)oc2c1` the Potency was inconclusive: 0.158 µM [rising, full curve]. With `O=c1c2ccccc2nc(SCc2nnc(-c3ccccc3Br)o2)n1-c1ccccc1` the Potency was active: 2.51 µM. In the case of `COc1ncc2nc(-c3cn(C)c4ccccc34)c(=O)n(-c3ccccc3)c2n1`, the Potency was inconclusive: 12.6 µM [rising, partial curve]. For `O=C(Nc1ccc(NC(=O)c2ccco2)nc1)c1cccnc1`, the “activity change, negative = inhibition” value was inactive: 2.24%. With `CC(CC1C(C#N)=C(N)OC2=C1C(=O)CCC2)c1ccccc1` (configuration not stated) the “activity change, negative = inhibition” value was inactive: -0.822%. For `CCC1C(C#N)=C(SC)NC2=C1C(=O)CC(C)(C)C2` (configuration not stated), the activity change, negative = inhibition was inconclusive: 20.1% [at 7.6 µM].

Reference: PubChem BioAssay AID662 (National Center for Advancing Translational Sciences (NCATS), 2007)
Potency is the fitted concentration of half-maximal effect; tags give direction and shape of the fitted curve.
